Data taken from PubChem BioAssay AID652104 (National Center for Advancing Translational Sciences (NCATS), 2013).
In all, about 410,000 compounds went through this assay and about 7,200 (1.8%) were called active. The shares of active, inactive and inconclusive entries below differ from those in the screen. The call rests on the fitted dose curve; in most records, active means well fitted activation curve with a large enough effect; inconclusive means small, poorly fitted or top-dose-only effect, or another doubt; inactive means no such curve, though single readings can be large or run the other way. No potency is given beside an inconclusive call; the fits are too rough.

Assay: qHTS of TDP-43 Inhibitors; further: nearly all actives have a fitted effect of over 50% in size; on growth rescue (activation): % of control where 0% means no effect
Conditions: TDP-43 expressing yeast growth rescue, BacTiter-Glo, 24 h; growth rescue (activation): at 46.1 µM (top of the series) unless noted
Procedure, shortened: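 Luminescence from BacTiter-Glo reports growth of TDP-43-expressing yeast after 24 hr at 30 deg C with compound. Cells were raffinose-pregrown to mid-log, then seeded in galactose medium at OD600=0.02.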
Potency means the concentration at half of the fitted maximal effect; tags describe the fitted curve by direction and shape.

Q: Which Potency does the source give for `CN(c1ccccc1)S(=O)(=O)c1nnc(NC(=O)COc2ccccc2)s1` here?
A: inconclusive [activator, full curve, poor fit]

Q: For `CCCSc1cc(N2CCCC2)nc(-c2ccccc2)n1`, which “growth rescue (activation)” value is on record?
A: inactive: 2%

Q: For `COc1cccc(C2=CC(=O)C[C@H](c3ccc(Cl)cc3)C2)c1OC`, which Potency is on record?
A: inconclusive [activator, single point]

Q: For `OC[C@@H]1CN(Cc2ccc(F)cc2)C[C@H](n2cnc3c(N4CCN(c5ccccc5)CC4)ncnc32)O1`, which “growth rescue (activation)” value is on record?
A: inactive: 25.8%

Q: Which Potency does the source give for `CCCN(C(=O)Cn1ncc2c1-c1ccccc1OC2)c1cccc(C)c1` here?
A: inconclusive [activator, single point]

Q: With `Cc1ccc(C(=O)Oc2ccc(Cl)c3cccnc23)cc1[N+](=O)[O-]` as the compound, how does the Potency read?
A: inconclusive [activator, single point]

Q: With `CN(Cc1ccccc1)C(=O)COC(=O)c1ccc(Br)o1` as the compound, how does the Potency read?
A: inconclusive [activator, single point]

Q: With `CN(C)S(=O)(=O)Oc1cccc(C(=O)Nc2ccccc2Cl)c1` as the compound, how does the Potency read?
A: active: 14.1 µM

Q: With `CCN(CC)c1ncnc2c1ncn2Cc1c(Cl)cccc1Cl` as the compound, how does the Potency read?
A: inconclusive [activator, single point]

Q: With `CC(C)c1c(C(=O)N/N=C/c2ccc3c(c2)OCO3)nnn1-c1nonc1N` as the compound, how does the “growth rescue (activation)” value read?
A: inactive: 11.2%

Q: Which “growth rescue (activation)” value does the source give for `CCCN(CCC)C(=O)Cn1c(SCc2cccc(C(F)(F)F)c2)nc2cccnc21` here?
A: inactive: 9.43%

Q: With `C/C(CC(=O)Nc1ccc(Cl)c(Cl)c1)=N\NC(N)=S` as the compound, how does the Potency read?
A: inconclusive [activator, single point]

Q: With `COc1ccc(-c2nnc(SCC(=O)Nc3cc(F)ccc3C)o2)cc1` as the compound, how does the Potency read?
A: active: 11.2 µM

Q: Which Potency does the source give for `CCC(C)c1ccc(OCc2ccc(C(=O)O)o2)cc1` (stereo not given) here?
A: inconclusive [activator, single point]

Q: For `COc1ccccc1C(=O)NCC(=O)OCC(=O)Nc1ccc2[nH]c(=O)[nH]c2c1`, which “growth rescue (activation)” value is on record?
A: inactive: 11.3%

Q: With `NC(=O)c1sc2nc3c(c(-c4ccco4)c2c1N)CCC3` as the compound, how does the “growth rescue (activation)” value read?
A: inactive: 6.55%

Q: For `CC12CCC(=O)C=C1CCC1C2C(O)CC2(C)C(c3csc(N)n3)CCC12` (stereo not given), which “growth rescue (activation)” value is on record?
A: inactive: -12.7%

Q: With `COc1ccc(CN2C(=O)c3ccccc3C(/C=N\OCc3ccc(F)cc3)C2=O)cc1` (stereo not given) as the compound, how does the Potency read?
A: inconclusive [activator, partial curve, poor fit]

Q: Which Potency does the source give for `CCCCn1c(CCC(=O)O)ccc1-c1cccs1` here?
A: active: 17.8 µM

Q: With `CCC(C)NC(=O)CCc1c(C)nc2c(c(C)nn2-c2ccc(C)cc2)c1C` (stereo not given) as the compound, how does the Potency read?
A: inconclusive [activator, full curve, poor fit]

Q: With `Cc1nn(-c2ccc(Cl)c(Cl)c2Cl)c(=O)c2ccccc12` as the compound, how does the Potency read?
A: active: 15.8 µM

Q: For `COc1ccc(CCNC(=O)CN2C(=O)NC3(CCCCC3)C2=O)cc1`, which Potency is on record?
A: inconclusive [activator, single point]

Q: With `Cc1ccc(CN=c2c([N+](=O)[O-])nn(-c3cccc(Cl)c3)n2O)cc1` as the compound, how does the Potency read?
A: active: 10 µM

Q: With `O=C(CSc1ccc(F)cc1)NCCc1ccc(Cl)cc1` as the compound, how does the Potency read?
A: inconclusive [activator, partial curve]

Q: With `COc1ccc(/C=C/c2c(-c3ccc(OC)cc3)sc3ccc(N4CCOCC4)cc23)cc1` as the compound, how does the “growth rescue (activation)” value read?
A: inactive: 4.63%

Q: With `CCN(CC)CCNC(=O)COc1ccc(OC)cc1` as the compound, how does the Potency read?
A: inconclusive [activator, partial curve, poor fit]

Q: For `CCCN1C(=O)c2cc(C(=O)Nc3ccccc3CC)ccc2C1O` (stereo not given), which Potency is on record?
A: inconclusive [activator, partial curve]

Q: Which Potency does the source give for `CCC(=O)N1N=C(c2ccccc2)CC1c1ccc([N+](=O)[O-])cc1` (stereo not given) here?
A: inconclusive [activator, single point]

Q: For `Cc1ccc(Cl)cc1N1CCN(Cc2nnnn2C2CCCCC2)CC1`, which Potency is on record?
A: inconclusive [activator, single point]

Q: Which Potency does the source give for `O=C1N=C(N2CCN(c3ccccc3)CC2)S/C1=C\c1ccco1` here?
A: inconclusive [activator, full curve, poor fit]

Q: For `COC1=CC2(O)CCCC2=CC1=O` (stereo not given), which Potency is on record?
A: inconclusive [activator, partial curve, poor fit]

Q: For `Cc1ccc2sc(NC(=O)C3CC3)nc2c1C`, which Potency is on record?
A: inconclusive [activator, partial curve]

Q: For `O=C(Nc1ccccc1)C1=C[C@@H](c2csc3ccccc23)C[C@@H](OCc2ccc(CO)cc2)O1`, which Potency is on record?
A: inconclusive [activator, single point]

Q: With `CCc1ccc2c(c1)/C(=C/C(=O)c1cccs1)C(=O)N2` as the compound, how does the growth rescue (activation) read?
A: inconclusive: -87.7% [activator]

Q: For `COc1cc(OC)c2c(-c3cccc(-c4sccc4C(C)=O)c3)cc(=O)oc2c1`, which Potency is on record?
A: inconclusive [activator, partial curve]

Q: Which Potency does the source give for `Cc1ccc(S(=O)(=O)N2CCN(C(=O)CCOc3cc(C)ccc3C)CC2)cc1` here?
A: active: 35.5 µM

Q: With `COc1ccc(NS(=O)(=O)c2ccc(N3CCCC3)c(NC(=S)Nc3cccc(C)c3C)c2)cc1` as the compound, how does the Potency read?
A: inconclusive [activator, partial curve]

Q: For `N/C(Cc1ccc([N+](=O)[O-])cc1)=N\OC(=O)c1ccccc1F`, which Potency is on record?
A: active: 11.2 µM

Q: For `O=C(c1ccco1)N1CCN(Cc2ccc(F)cc2)CC1`, which Potency is on record?
A: inconclusive [activator, partial curve]

Q: With `CSc1nncn1/N=C/c1cc(Cl)ccc1F` as the compound, how does the Potency read?
A: inconclusive [activator, single point]

Q: Which Potency does the source give for `COc1ccc(-c2noc(N3CCC(C(=O)N(C)c4ccccc4)CC3)n2)cc1` here?
A: active: 15.8 µM

Q: Which Potency does the source give for `O=C(O)c1ccc2c(c1)C1C=CCC1C(c1cc3c(cc1Br)OCO3)N2` (stereo not given) here?
A: inconclusive [activator, partial curve]

Q: Which Potency does the source give for `Cc1cccc(CCNC(=O)c2ccc(CSCc3cccc(Cl)c3)o2)c1` here?
A: inconclusive [activator, full curve, poor fit]

Q: Which Potency does the source give for `Cc1cccc(N(Cc2cc3ccccc3[nH]c2=O)C(=O)c2cccc(Cl)c2)c1` here?
A: inconclusive [activator, partial curve]

Q: For `Cc1ccc(C2CCN(C(=S)Nc3cccc(C)c3)C2)cc1` (stereo not given), which Potency is on record?
A: active: 22.4 µM
